Test results from article PMC4336329 (PLoS ONE, 2015).
Screen size: about 310,000 compounds; about 2,200 (0.71%) showed an effect of 50% or more. Effects have a minus sign here. Some of the results follow.

These molecules were tested against human ether-à-go-go-related gene (hERG) potassium channel (human, UniProt Q12809) (assay: primary screen, population patch clamp on CHO cells stably expressing hERG).
Sequence of human ether-à-go-go-related gene (hERG) potassium channel (Q12809 whole entry, looked up): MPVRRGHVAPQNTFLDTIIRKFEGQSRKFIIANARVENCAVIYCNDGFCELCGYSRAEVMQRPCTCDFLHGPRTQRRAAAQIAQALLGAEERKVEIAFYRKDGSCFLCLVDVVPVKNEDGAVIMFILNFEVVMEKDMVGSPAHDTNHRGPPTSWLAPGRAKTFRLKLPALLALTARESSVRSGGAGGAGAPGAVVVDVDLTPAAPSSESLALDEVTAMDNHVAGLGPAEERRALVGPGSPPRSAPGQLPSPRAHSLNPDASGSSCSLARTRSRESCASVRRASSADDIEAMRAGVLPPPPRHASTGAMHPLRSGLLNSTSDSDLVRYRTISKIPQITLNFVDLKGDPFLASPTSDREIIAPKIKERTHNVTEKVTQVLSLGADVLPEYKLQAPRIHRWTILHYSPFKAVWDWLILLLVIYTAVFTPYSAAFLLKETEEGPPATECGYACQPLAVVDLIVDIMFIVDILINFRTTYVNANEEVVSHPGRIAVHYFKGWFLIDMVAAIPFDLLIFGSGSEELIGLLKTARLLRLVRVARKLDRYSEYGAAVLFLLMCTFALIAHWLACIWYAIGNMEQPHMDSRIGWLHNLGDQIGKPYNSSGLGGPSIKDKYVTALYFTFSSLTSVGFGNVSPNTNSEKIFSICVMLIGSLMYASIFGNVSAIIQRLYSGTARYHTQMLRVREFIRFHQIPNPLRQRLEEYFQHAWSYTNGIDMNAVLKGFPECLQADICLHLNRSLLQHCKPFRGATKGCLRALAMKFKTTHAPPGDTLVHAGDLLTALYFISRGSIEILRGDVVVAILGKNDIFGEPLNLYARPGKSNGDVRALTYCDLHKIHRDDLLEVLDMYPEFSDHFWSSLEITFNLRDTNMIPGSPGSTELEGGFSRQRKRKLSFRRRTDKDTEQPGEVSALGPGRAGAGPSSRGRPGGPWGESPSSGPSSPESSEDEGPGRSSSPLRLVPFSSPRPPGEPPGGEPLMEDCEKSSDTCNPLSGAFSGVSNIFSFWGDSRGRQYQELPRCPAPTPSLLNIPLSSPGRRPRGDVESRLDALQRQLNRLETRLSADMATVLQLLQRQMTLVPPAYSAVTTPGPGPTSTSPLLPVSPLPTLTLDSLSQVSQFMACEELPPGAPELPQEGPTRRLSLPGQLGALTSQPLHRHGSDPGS

Row | Structure (SMILES) | hERG current change (%, negative = inhibition) at 1uM [%]
1 | COc1cccc(N2C(=O)CC(N3CCN(CCN=CC4=C(O)CC(C)(C)CC4=O)CC3)C2=O)c1 (stereo not shown) | 12.5
2 | CN1C(=O)C(CC(=O)N2CCN(C(c3ccccc3)c3ccccc3)CC2)N(C)C1=O (stereo not shown) | 8.2
3 | Cn1c(SCC(=O)Nc2ccc(N3CCOCC3)cc2)nnc1-c1ccco1 | 2.86
4 | CC(C)[N+](C)(CCOC(=O)C1c2ccccc2Oc2ccccc21)C(C)C.[Br-] | 11.2
5 | Cc1cnc(C(=O)OCc2ccc(COC(=O)c3cnc(C)cn3)cc2)cn1 | 8.16
6 | Cc1cccc(NC(=O)CCC(=O)OCc2ccc(Br)cc2)c1 | -5.35
7 | COc1ccc2c(c1)c(C(=O)CN1CCC3(CC1)OCCO3)c(C)n2Cc1ccccc1 | -11.5
8 | O=C(COc1ccccc1)Nc1ccc(S(=O)(=O)Nc2ccccn2)cc1 | 10.5
9 | O=C(COC(=O)c1ccc2c(c1)OCO2)Nc1nc(-c2ccccc2)cs1 | 11.4
10 | CC1CCc2nc(N)c(C#N)c(-c3ccncc3)c2C1 (stereo not shown) | 11
11 | CC(C)Nc1nc(N(c2ccccc2)c2ccccc2)nc(-n2ccnc2)n1 | 16.3
12 | Cc1ccc(CN(C)CCc2ccccn2)cc1 | -10.1
13 | O=C1CC(N2CCSCC2)C(=O)N1c1cccc(Br)c1 (stereo not shown) | 5.73
14 | COc1ccc(C(=O)C2CCCN(C(=O)C3=CCCC3)C2)c(C)c1 (stereo not shown) | 2.5
15 | O=C(N/N=C/c1cc(Br)c(Br)o1)c1cccnc1 | 6.65
16 | Cc1cc(C)nc(NC(=O)c2ccc([N+](=O)[O-])c(C)c2)n1 | 15.4
17 | CSc1ncc(/C=C2/C(=O)NC(=O)N(c3ccc(C(C)C)cc3)C2=O)cn1 | 22.2
18 | NC(=O)c1cc(S(=O)(=O)NCc2ccccc2)cs1 | 18.4
19 | COc1ccc2c(OC)cc(=O)n(C)c2c1 | 11
20 | COc1ccc(C(=O)OCC(=O)Nc2ccc(OC(F)F)cc2)c(OC)c1 | -12.6

Row | Structure (SMILES) | hERG current change (%, negative = inhibition) at 1uM [%]
21 | Cc1cc(C)c(OCC(=O)OCC(=O)N2CCCc3ccccc32)c(C)c1 | 14.3
22 | COC(=O)c1ccc(Oc2cc(C)nc(NCc3ccccc3)n2)cc1 | 8.18
23 | CCCOc1ccc(CNC(=O)c2ccc3nc(N4CCOCC4)sc3c2)cc1 | 12.7
24 | CCCc1cc(-c2n[nH]c(=S)n2CC)cs1 | -10.7
25 | COCC(=O)Nc1nc2ccc(C)cc2s1 | 10.2
26 | CC1CCc2c(sc3nc(CSc4nnnn4C)[nH]c(=O)c23)C1 (stereo not shown) | -1.16
27 | CCCCN(CC)CCNC(=O)c1cc2c(=O)[nH]c3ccc(C)cc3c2s1 | 11
28 | CC(=O)c1ccc(N2CCN(C(=O)CCNC(=O)Cn3ccc4ccccc4c3=O)CC2)cc1 | 19.5
29 | CS(=O)(=O)N(CC(=O)N1CCCC1)Cc1ccc(Cl)c(Cl)c1 | 9.83
30 | CC(C)(C)n1nnnc1C(c1cccs1)N(Cc1cccnc1)Cc1ccco1 (stereo not shown) | 2.32
31 | COc1ccc(OC)c(/C=N/Nc2nc(C)cc(=O)[nH]2)c1 | 16.4
32 | COc1ccc(N2CCN(C(=O)c3ccc(CS(=O)c4cccc(C)c4)o3)CC2)cc1 (stereo not shown) | 1.81
33 | Cc1ccc(C(=O)COc2ccccc2C(=O)Nc2ccccc2)cc1 | 7.64
34 | CS(=O)(=O)O.NC(=Nc1ccccc1)NC(=O)c1nc(Cl)c(N)nc1N | -13.3
35 | COCCCNC(=O)CCS(=O)(=O)Cc1ccc(C)cc1 | -0.724
36 | COc1ccc(N2CCN(C(=O)CCc3nnc4ccc(N5CCC(C)CC5)nn34)CC2)cc1 | -13
37 | CC1(C)SC[C@H](C(=O)Nc2cccc(Cl)c2)N1C=O | 6.92
38 | S=C1N[C@H]2CCCC[C@@H]2N1 | 16.5
39 | CCCCCCCOc1ccc(C2CC(=O)N(C)C2=O)cc1 (stereo not shown) | 14.4
40 | CN1CCC(=NNC(=O)CSc2ccc(Cl)cc2)CC1 | 7.18

Row | Structure (SMILES) | hERG current change (%, negative = inhibition) at 1uM [%]
41 | O=C(O)C(=O)O.OCCNCCSc1nc(C2CCCCC2)n(-c2ccccc2Cl)n1 | 2.22
42 | Cc1cc(C)n(C2CCCCC2OC(=O)c2ccccc2F)n1 (stereo not shown) | 10.6
43 | C=CCSc1nnc(-c2ccccc2NC(C)=O)c(=O)[nH]1 | -3.54
44 | CC(=O)Nc1c(O)c2cccc3c2n(c1=O)CCC3 | 9.36
45 | COc1ccc(CN2C(=O)c3cccnc3C2=O)cc1S(=O)(=O)N(C)Cc1ccco1 | 8.11
46 | CC(=O)N1C(C(=O)O)Cc2c([nH]c3ccccc23)C1(C)C (stereo not shown) | 15.2
47 | O=C(Nc1cccc2oc(=O)ccc12)c1ccc([N+](=O)[O-])cc1[N+](=O)[O-] | -15.3
48 | COc1ccc(N(CC(=O)Nc2cc(Cl)ccc2C)S(=O)(=O)c2c(C)n[nH]c2C)cc1 | 14.4
49 | CC(Sc1nnc2ccccn12)C(=O)Nc1ccc(Cl)cn1 (stereo not shown) | 4.55
50 | C/C(Cn1nc([N+](=O)[O-])cc1C)=N\NC(=O)c1cccc(Br)c1 | -2.35
51 | COc1cccc(/C=N\NS(=O)(=O)c2ccccc2)c1OC | 12.6
52 | Cc1ccccc1CC(=O)Nc1ccc(S(=O)(=O)N2CCN(C)CC2)cc1 | 5.26
53 | Cn1c(=O)n(CC(=O)NC2CCCCC2)c(=O)c2ccccc21 | 4.82
54 | CC1CCCC(NC(=O)COC(=O)/C=C/c2ccc3c(c2)OCO3)C1C (stereo not shown) | 5.74
55 | O=C(CN1CCCCCC1)N/N=C/c1cccc(Cl)c1 | -6.47
56 | COc1ccc(-c2n[nH]c(C)c2-c2ccc(Cl)cc2)c(O)c1OC | 11.1
57 | Cn1c(=O)c(C(=O)CN2CCCCC2)c(N)n(Cc2ccccc2)c1=O | 6.17
58 | CC(=O)O.Cc1ccc(OCCCSc2n[nH]c(N)n2)cc1 | 14.6
